The list shows a part of the results.
Assays:
Test in all cases: glycan array binding signal (z-score within array); higher = stronger binding
Conditions in all cases: glycan notation: IUPAC condensed, linker removed
[1] = target: Fuc(a1-2)[Gal(a1-3)]Gal(b1-4)GlcNAc(b1-2)Man(a1-3)[Fuc(a1-2)[Gal(a1-3)]Gal(b1-4)GlcNAc(b1-2)Man(a1-6)]Man(b1-4)GlcNAc(b1-4)GlcNAc
Outline: (§1)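 Glycan array data came from 3228 arrays in the Consortium for Functional Glycomics database, and only arrays with an available protein sequence were kept. Glycan names were put into IUPAC-condensed notation, and columns mapping to the same glycan were averaged. The binding signal is a within-array Z-score, averaged across arrays of one protein sequence run at different concentrations or buffers and across linkers. A negative Z-score can be read as non-binding.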

[2] = target: Fuc(a1-2)[Gal(a1-3)]Gal(b1-4)GlcNAc(b1-2)Man(a1-3)[Fuc(a1-2)[Gal(a1-3)]Gal(b1-4)GlcNAc(b1-2)Man(a1-6)]Man(b1-4)GlcNAc(b1-4)[Fuc(a1-6)]GlcNAc
Outline: as §1

[3] = target: Fuc(a1-2)[Gal(a1-3)]Gal(b1-4)GlcNAc(b1-3)GalNAc
Outline: as §1

[4] = target: Fuc(a1-2)[Gal(a1-3)]Gal(b1-4)GlcNAc(b1-3)[Fuc(a1-2)[Gal(a1-3)]Gal(b1-4)GlcNAc(b1-6)]GalNAc
Outline: as §1

[5] = target: Fuc(a1-2)[Gal(a1-3)]Gal(b1-4)GlcNAc(b1-6)GalNAc
Outline: as §1

[6] = target: Fuc(a1-2)[Gal(a1-3)]Gal(b1-4)[Fuc(a1-3)]Glc
Outline: as §1

[7] = target: Fuc(a1-2)[Gal(a1-3)]Gal(b1-4)[Fuc(a1-3)]GlcNAc
Outline: as §1

[8] = target: Fuc(a1-2)[Gal(a1-3)]Gal(b1-4)[Fuc(a1-3)]GlcNAc(b1-3)GalNAc
Outline: as §1

[9] = target: Fuc(a1-2)[Gal(a1-4)]Gal(b1-4)GlcNAc
Outline: as §1

[10] = target: Fuc(a1-2)[GalNAc(a1-3)]Gal
Outline: as §1

[11] = target: Fuc(a1-2)[GalNAc(a1-3)]Gal(b1-3)GalNAc(a1-3)[Fuc(a1-2)]Gal(b1-4)GlcNAc
Outline: as §1

[12] = target: Fuc(a1-2)[GalNAc(a1-3)]Gal(b1-3)GalNAc(b1-3)Gal(a1-4)Gal(b1-4)Glc
Outline: as §1

[13] = target: Fuc(a1-2)[GalNAc(a1-3)]Gal(b1-3)GlcNAc
Outline: as §1

[14] = target: Fuc(a1-2)[GalNAc(a1-3)]Gal(b1-3)GlcNAc(b1-2)Man(a1-3)[Fuc(a1-2)[GalNAc(a1-3)]Gal(b1-3)GlcNAc(b1-2)Man(a1-6)]Man(b1-4)GlcNAc(b1-4)GlcNAc
Outline: as §1

[15] = target: Fuc(a1-2)[GalNAc(a1-3)]Gal(b1-3)GlcNAc(b1-2)Man(a1-3)[Fuc(a1-2)[GalNAc(a1-3)]Gal(b1-3)GlcNAc(b1-2)Man(a1-6)]Man(b1-4)GlcNAc(b1-4)[Fuc(a1-6)]GlcNAc
Outline: as §1

[16] = target: Fuc(a1-2)[GalNAc(a1-3)]Gal(b1-3)GlcNAc(b1-3)GalNAc
Outline: as §1

[17] = target: Fuc(a1-2)[GalNAc(a1-3)]Gal(b1-3)GlcNAc(b1-6)GalNAc
Outline: as §1

[18] = target: Fuc(a1-2)[GalNAc(a1-3)]Gal(b1-4)Glc
Outline: as §1

[19] = target: Fuc(a1-2)[GalNAc(a1-3)]Gal(b1-4)GlcNAc
Outline: as §1

[20] = target: Fuc(a1-2)[GalNAc(a1-3)]Gal(b1-4)GlcNAc(b1-2)Man
Outline: as §1

[21] = target: Fuc(a1-2)[GalNAc(a1-3)]Gal(b1-4)GlcNAc(b1-2)Man(a1-3)[Fuc(a1-2)[GalNAc(a1-3)]Gal(b1-4)GlcNAc(b1-2)Man(a1-6)]Man(b1-4)GlcNAc(b1-4)GlcNAc
Outline: as §1

[22] = target: Fuc(a1-2)[GalNAc(a1-3)]Gal(b1-4)GlcNAc(b1-2)Man(a1-3)[Fuc(a1-2)[GalNAc(a1-3)]Gal(b1-4)GlcNAc(b1-2)Man(a1-6)]Man(b1-4)GlcNAc(b1-4)[Fuc(a1-6)]GlcNAc
Outline: as §1

[23] = target: Fuc(a1-2)[GalNAc(a1-3)]Gal(b1-4)GlcNAc(b1-3)Gal(b1-4)GlcNAc
Outline: as §1

[24] = target: Fuc(a1-2)[GalNAc(a1-3)]Gal(b1-4)GlcNAc(b1-3)Gal(b1-4)GlcNAc(b1-3)Gal(b1-4)GlcNAc
Outline: as §1

[25] = target: Fuc(a1-2)[GalNAc(a1-3)]Gal(b1-4)GlcNAc(b1-3)GalNAc
Outline: as §1

[26] = target: Fuc(a1-2)[GalNAc(a1-3)]Gal(b1-4)GlcNAc(b1-3)[Fuc(a1-2)[GalNAc(a1-3)]Gal(b1-4)GlcNAc(b1-6)]GalNAc
Outline: as §1

[27] = target: Fuc(a1-2)[GalNAc(a1-3)]Gal(b1-4)GlcNAc(b1-6)GalNAc
Outline: as §1

[28] = target: Fuc(a1-2)[GalNAc(a1-3)]Gal(b1-4)[Fuc(a1-3)]GlcNAc
Outline: as §1

[29] = target: Fuc(a1-2)[GalNAc(a1-3)]Gal(b1-4)[Fuc(a1-3)]GlcNAc(b1-3)GalNAc
Outline: as §1

[30] = target: Fuc(a1-2)[GalNAc(a1-4)]Gal(b1-4)GlcNAc
Outline: as §1

[31] = target: Fuc(a1-2)[GalNAc(b1-3)]Gal
Outline: as §1

Fuc(a1-3)GlcNAc = target: Fuc(a1-3)GlcNAc
Outline: as §1

[32] = target: Fuc(a1-3)[Gal(b1-4)]Glc6S
Outline: as §1

[33] = target: Fuc(a1-3)[Gal(b1-4)]GlcNAc
Outline: as §1

[34] = target: Fuc(a1-3)[Gal(b1-4)]GlcNAc(b1-2)Man
Outline: as §1

[35] = target: Fuc(a1-3)[Gal(b1-4)]GlcNAc(b1-2)Man(a1-3)[Fuc(a1-3)[Gal(b1-4)]GlcNAc(b1-2)Man(a1-6)]Man(b1-4)GlcNAc(b1-4)GlcNAc
Outline: as §1

[36] = target: Fuc(a1-3)[Gal(b1-4)]GlcNAc(b1-2)Man(a1-3)[Fuc(a1-3)[Gal(b1-4)]GlcNAc(b1-2)Man(a1-6)]Man(b1-4)GlcNAc(b1-4)[Fuc(a1-6)]GlcNAc
Outline: as §1

B1: Epa3 (Candida glabrata), Q6VBI8_CANGB (protein)
chain: MGSSHHHHHHSSGLVPRGSHMNDLGFSLFEKRELSSQNPFGYPIGCSPQDVAIIPGLTMELYSYPIVSGTPPNCYDASYVDPEYPRTGYLKRKMVGKSTGVTGNLNYKYSVEKACMVKYGNLPAGYNYNEPLTVSNFTMILYGYFKAQTTGLHTFFVNADDLLYINFGAGNAFDCCKREDSKTKLGEYVAYDIWHVDSSKNKVSLFLEKDLYYPIRMFFNNIGKDSSLDLSFSVNGATDQISDFSGYLYSVPDQPDTCPAHIGYDTTCR
- glycan array binding signal (z-score) [1]: -0.263
- glycan array binding signal (z-score) [2]: -0.278
- glycan array binding signal (z-score) [3]: -0.324
- glycan array binding signal (z-score) [4]: -0.123
- glycan array binding signal (z-score) [5]: -0.159
- glycan array binding signal (z-score) [6]: -0.25
- glycan array binding signal (z-score) [7]: 0.113
- glycan array binding signal (z-score) [8]: 0.123
- glycan array binding signal (z-score) [9]: 0.131
- glycan array binding signal (z-score) [10]: -0.223
- glycan array binding signal (z-score) [11]: -0.258
- glycan array binding signal (z-score) [12]: -0.272
- glycan array binding signal (z-score) [13]: -0.201
- glycan array binding signal (z-score) [14]: -0.392
- glycan array binding signal (z-score) [15]: -0.205
- glycan array binding signal (z-score) [16]: -0.088
- glycan array binding signal (z-score) [17]: -0.284
- glycan array binding signal (z-score) [18]: -0.291
- glycan array binding signal (z-score) [19]: -0.312
- glycan array binding signal (z-score) [20]: -0.275
- glycan array binding signal (z-score) [21]: -0.279
- glycan array binding signal (z-score) [22]: -0.254
- glycan array binding signal (z-score) [23]: -0.246
- glycan array binding signal (z-score) [24]: -0.236
- glycan array binding signal (z-score) [25]: -0.304
- glycan array binding signal (z-score) [26]: -0.386
- glycan array binding signal (z-score) [27]: -0.24
- glycan array binding signal (z-score) [28]: 0.011
- glycan array binding signal (z-score) [29]: 2.94
- glycan array binding signal (z-score) [30]: -0.177
- glycan array binding signal (z-score) [31]: -0.012
- glycan array binding signal (z-score) (Fuc(a1-3)GlcNAc): -0.248
- glycan array binding signal (z-score) [32]: -0.095
- glycan array binding signal (z-score) [33]: 0.024
- glycan array binding signal (z-score) [34]: 0.065
- glycan array binding signal (z-score) [35]: -0.046
- glycan array binding signal (z-score) [36]: -0.158
